# Laboratory results published in PubChem BioAssay (Tox21).
# Several values for one entry are separate records, joined by “and”; a condition that tells them apart may be missing. Equal values may be shown once. The inconclusive results got no clear call from the source; some entries with a clear call stand among them for comparison. For some assays here: A potency beside an inconclusive call is a rough fit, not a confirmed value. Where a structure was tested more than once in an assay, its records may differ in their call. Activity calls are given as the source filed them. Unless noted, the call rests on the fitted dose curve; in most records, active means well fitted curve in the direction sought with a large enough effect in the repeat runs; inconclusive means weak or mixed curves; inactive means no such curve, though single readings can be large; an effect the other way counts as inactive or inconclusive.
# Assays:
# [1] = qHTS assay to identify small molecule antagonists of the TGF-beta/Smad signaling pathway (AID 1346924; active means well fitted inhibition curve with a large enough effect in the signal ratio in the repeat runs, not every such curve was filed as active; inconclusive means weak or mixed curves; the % refers to the signal ratio); details: SBE-bla HEK293T, TGF-beta/Smad reporter, beta-lactamase ratio
# Method in brief: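 SBE-bla HEK 293T cells were plated overnight, then received compound in DMSO plus TGF-beta1 (added as a 0.25 ng/mL solution) and were incubated 5 h at 37 C. Beta-lactamase reporter activity was read after 2 h at room temperature with LiveBLAzer B/G FRET substrate (ex 405, em 460/530 nm).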
# [2] = target: Thyrotropin-releasing hormone receptor (Homo sapiens) (UniProt P34981); experiment: qHTS assay to identify small molecule agonists of the thyrotropin-releasing hormone receptor (TRHR) signaling pathway (AID 1346891; calls by dose curve)
# Method in brief: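 Kinetic fluorescence (3 min, 1 s intervals) reported intracellular calcium after compound transfer onto TRHR-Hek293 cells pre-loaded with dye for 2 h at 37 °C.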
# [3] = Human pregnane X receptor (PXR) small molecule agonists, qHTS cell viability counter screen (AID 1346977); further: nearly all actives have a fitted effect of over 50% in size
# Method in brief: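 HepG2 cells stably carrying the PXR-Luc reporter are cultured with 5% charcoal-stripped FBS and treated with compounds for 24hr. CellTiter-Fluor is added at 23hr and fluorescence is read after 1hr.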
# [4] = Caspase-3/7 induction in CHO-K1 cells by small molecules, qHTS cell viability counter screen (AID 1346979); further: nearly all actives have a fitted effect of over 35% in size
# Method in brief: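 Seeding: 1,500 CHO-K1 cells/well. Rest: 5hr, 37C. Treatment: compounds in DMSO, 16hr. Read: CellTiter-Fluor, 1hr, fluorescence.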
# [5] = Caspase-3/7 induction in CHO-K1 cells by small molecules, qHTS assay (AID 1346980); further: nearly all actives have a fitted effect of over 15% in size
# Method in brief: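 Wild-type CHO-K1 cells exposed to compounds for 17hr at 37 C, 5% CO2. Caspase-3/7 activity then measured by Caspase-Glo 3/7 luminescence after 30min at room temperature.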
# [6] = Caspase-3/7 induction in HepG2 cells by small molecules, qHTS cell viability counter screen (AID 1346981); further: nearly all actives have a fitted effect of over 30% in size
# Method in brief: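 Wild-type HepG2 cells (2,000/well) were allowed to settle for 5 hr at 37 C, 5% CO2, then dosed with compounds in DMSO by pin transfer. After 16 hr at 37 C, CellTiter-Fluor was added and fluorescence read 1 hr later.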
# [7] = target: Nuclear receptor subfamily 1 group I member 2 (Homo sapiens) (UniProt O75469); experiment: CYP3A4 induction through human pregnane X receptor (PXR) by small molecules, qHTS assay (AID 1346984); further: nearly all actives have a fitted effect of over 40% in size
# Method in brief: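 DPX-2 cells (HepG2 co-transfected with PXR and CYP3A4 promoter-luciferase) treated with compounds 24 h at 37C; luciferin-IPA CYP3A4 substrate 3uM final added for 3 h, then One-Glo; luminescence read. qHTS format.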
# [8] = target: Nuclear receptor subfamily 1 group I member 2 (Rattus norvegicus) (UniProt Q9R1A7); experiment: Rat pregnane X receptor (rPXR) activation by small molecules, qHTS assay (AID 1346983); details: rPXR luciferase reporter cells, One-Glo luminescence, 24 h; max activation: stronger effect = higher value; further: nearly all actives have a fitted effect of over 20% in size
# Method in brief: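 Cell-based rPXR activation assay: rPXR cells, 2,000 per well, rested 5hr at 37 C, then exposed to compounds in DMSO for 24 hr at 37 C. Luciferase activity read by One-Glo luminescence after 30 min at room temperature.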
# [9] = target: Cytochrome P450 2D6 (Homo sapiens) (UniProt P10635); experiment: Cytochrome P450 Family 2 Subfamily D Member 6 (CYP2D6) small molecule antagonists: luciferase reporter qHTS assay (AID 1671196); further: nearly all actives have a fitted effect of over 50% in size
# Method in brief: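 CYP2D6 enzyme–substrate mix was held with compound for 10 min at room temperature, then NADPH regeneration solution was added and the reaction ran 1 h at room temperature. Luciferin product was detected by luminescence after 20 min with detection reagent.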
# [10] = target: Cytochrome P450 2C19 (Homo sapiens) (UniProt P33261); experiment: Cytochrome P450 Family 2 Subfamily C Member 19 (CYP2C19) small molecule antagonists: luciferase reporter qHTS assay (AID 1671197); further: nearly all actives have a fitted effect of over 65% in size
# Method in brief: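 Inhibition of CYP2C19 was scored from loss of luminescence in a P450-Glo proluciferin substrate assay, NADPH-started and run 1 h at 37C, with ketoconazole as positive control.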
# [11] = target: Cytochrome P450 2C9 (Homo sapiens) (UniProt P11712); experiment: Cytochrome P450 Family 2 Subfamily C Member 9 (CYP2C9) small molecule antagonists: luciferase reporter qHTS assay (AID 1671198); further: nearly all actives have a fitted effect of over 50% in size
# Method in brief: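 P450-Glo proluciferin substrate with CYP2C9 enzyme; 10 min RT preincubation, then NADPH regeneration 1 h at 37C; luciferin detection reagent 20 min RT, luminescence in relative luminescence units.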
# [12] = target: Cytochrome P450 1A2 (Homo sapiens) (UniProt P05177); experiment: Cytochrome P450 Family 1 Subfamily A Member 2 (CYP1A2) small molecule antagonists: luciferase reporter qHTS assay (AID 1671199); further: nearly all actives have a fitted effect of over 50% in size
# Method in brief: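 Human CYP1A2 activity measured with a P450-Glo proluciferin substrate; compounds in DMSO preincubated 10 min at room temperature with enzyme-substrate mix, then NADPH regeneration system added for 1 h. Luciferin detection reagent, 20 min, luminescence read.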
# [13] = target: Cytochrome P450 3A4 (Homo sapiens) (UniProt P08684); experiment: Cytochrome P450 Family 3 Subfamily A Member 4 (CYP3A4) small molecule antagonists: luciferase reporter qHTS assay (AID 1671201); further: nearly all actives have a fitted effect of over 50% in size
# Method in brief: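 Enzyme and proluciferin substrate are mixed with test chemicals for 10 min, then NADPH regeneration system drives turnover for 1 h at room temperature. A detection reagent halts the reaction; luminescence after 20 min gives relative activity.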
# [14] = activity, negative = inhibition: at 76.8 µM (top of the series) unless noted
# Potency means the concentration at half of the fitted maximal effect; tags describe the fitted curve by direction and shape or compound fluorescence and quenching.
# UniProt P10635, sequence (P10635 whole entry, looked up): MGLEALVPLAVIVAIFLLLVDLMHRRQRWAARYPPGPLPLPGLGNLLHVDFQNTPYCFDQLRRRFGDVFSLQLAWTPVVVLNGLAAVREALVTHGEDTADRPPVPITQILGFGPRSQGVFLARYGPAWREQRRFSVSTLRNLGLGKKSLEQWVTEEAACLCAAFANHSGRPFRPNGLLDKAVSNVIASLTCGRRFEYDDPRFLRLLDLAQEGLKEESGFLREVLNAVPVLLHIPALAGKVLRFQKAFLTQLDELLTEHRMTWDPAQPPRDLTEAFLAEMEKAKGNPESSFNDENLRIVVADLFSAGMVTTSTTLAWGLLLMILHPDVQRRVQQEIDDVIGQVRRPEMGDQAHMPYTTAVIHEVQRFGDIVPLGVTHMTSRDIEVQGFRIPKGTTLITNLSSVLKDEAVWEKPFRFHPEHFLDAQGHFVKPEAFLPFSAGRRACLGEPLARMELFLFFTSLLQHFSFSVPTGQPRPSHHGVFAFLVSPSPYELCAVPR
# UniProt P11712, sequence (P11712 whole entry, looked up): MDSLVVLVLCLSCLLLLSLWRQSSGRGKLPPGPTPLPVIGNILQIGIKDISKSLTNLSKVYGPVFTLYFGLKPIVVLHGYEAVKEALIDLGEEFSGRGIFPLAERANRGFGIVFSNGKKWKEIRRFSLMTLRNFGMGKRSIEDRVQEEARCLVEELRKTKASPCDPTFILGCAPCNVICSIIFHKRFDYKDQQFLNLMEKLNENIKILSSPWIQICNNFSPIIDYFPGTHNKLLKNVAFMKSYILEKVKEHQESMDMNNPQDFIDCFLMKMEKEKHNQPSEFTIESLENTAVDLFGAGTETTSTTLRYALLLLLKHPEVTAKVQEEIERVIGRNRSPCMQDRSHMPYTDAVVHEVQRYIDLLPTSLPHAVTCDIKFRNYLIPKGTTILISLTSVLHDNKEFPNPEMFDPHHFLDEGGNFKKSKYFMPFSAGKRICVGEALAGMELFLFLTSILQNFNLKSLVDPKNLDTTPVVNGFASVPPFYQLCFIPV
# UniProt P33261, sequence (P33261 whole entry, looked up): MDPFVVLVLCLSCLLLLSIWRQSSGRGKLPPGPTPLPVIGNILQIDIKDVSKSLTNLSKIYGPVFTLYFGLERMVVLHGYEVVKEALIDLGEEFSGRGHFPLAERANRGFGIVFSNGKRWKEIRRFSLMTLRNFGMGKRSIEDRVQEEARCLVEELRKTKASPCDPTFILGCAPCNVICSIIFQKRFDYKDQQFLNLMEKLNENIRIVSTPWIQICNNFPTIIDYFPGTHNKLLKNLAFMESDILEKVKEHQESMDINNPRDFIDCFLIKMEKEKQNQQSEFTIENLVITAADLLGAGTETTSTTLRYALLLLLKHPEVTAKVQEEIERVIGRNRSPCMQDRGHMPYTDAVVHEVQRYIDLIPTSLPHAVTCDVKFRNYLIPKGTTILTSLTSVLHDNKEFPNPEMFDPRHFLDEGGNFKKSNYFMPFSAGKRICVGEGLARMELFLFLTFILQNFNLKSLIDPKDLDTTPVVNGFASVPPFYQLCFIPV
# UniProt P05177, sequence (P05177 whole entry, looked up): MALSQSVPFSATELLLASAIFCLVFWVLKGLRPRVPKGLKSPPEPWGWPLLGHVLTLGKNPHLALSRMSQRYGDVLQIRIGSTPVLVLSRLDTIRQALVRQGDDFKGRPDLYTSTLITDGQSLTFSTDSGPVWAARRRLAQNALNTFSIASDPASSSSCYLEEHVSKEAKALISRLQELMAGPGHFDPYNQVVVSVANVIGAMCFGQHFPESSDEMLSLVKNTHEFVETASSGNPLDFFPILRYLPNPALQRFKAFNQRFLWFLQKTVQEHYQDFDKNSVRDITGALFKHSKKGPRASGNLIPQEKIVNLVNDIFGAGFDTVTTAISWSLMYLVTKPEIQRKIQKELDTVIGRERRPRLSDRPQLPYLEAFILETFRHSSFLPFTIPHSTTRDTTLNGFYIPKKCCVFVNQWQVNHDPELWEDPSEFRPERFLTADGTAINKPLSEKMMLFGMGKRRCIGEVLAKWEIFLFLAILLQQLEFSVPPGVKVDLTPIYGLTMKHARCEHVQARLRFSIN
# UniProt Q9R1A7, sequence (Q9R1A7 whole entry, looked up): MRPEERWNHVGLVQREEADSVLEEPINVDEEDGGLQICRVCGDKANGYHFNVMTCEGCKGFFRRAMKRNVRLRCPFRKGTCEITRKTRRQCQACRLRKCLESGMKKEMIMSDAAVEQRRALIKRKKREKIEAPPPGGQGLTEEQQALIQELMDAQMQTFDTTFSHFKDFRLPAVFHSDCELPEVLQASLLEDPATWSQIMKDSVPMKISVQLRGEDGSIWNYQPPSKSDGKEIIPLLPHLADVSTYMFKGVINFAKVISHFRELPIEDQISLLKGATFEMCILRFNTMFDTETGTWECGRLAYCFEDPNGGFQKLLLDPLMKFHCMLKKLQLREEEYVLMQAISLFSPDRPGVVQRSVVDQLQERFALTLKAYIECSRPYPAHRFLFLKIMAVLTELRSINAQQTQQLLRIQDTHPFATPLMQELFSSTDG
# UniProt P08684, sequence (P08684 whole entry, looked up): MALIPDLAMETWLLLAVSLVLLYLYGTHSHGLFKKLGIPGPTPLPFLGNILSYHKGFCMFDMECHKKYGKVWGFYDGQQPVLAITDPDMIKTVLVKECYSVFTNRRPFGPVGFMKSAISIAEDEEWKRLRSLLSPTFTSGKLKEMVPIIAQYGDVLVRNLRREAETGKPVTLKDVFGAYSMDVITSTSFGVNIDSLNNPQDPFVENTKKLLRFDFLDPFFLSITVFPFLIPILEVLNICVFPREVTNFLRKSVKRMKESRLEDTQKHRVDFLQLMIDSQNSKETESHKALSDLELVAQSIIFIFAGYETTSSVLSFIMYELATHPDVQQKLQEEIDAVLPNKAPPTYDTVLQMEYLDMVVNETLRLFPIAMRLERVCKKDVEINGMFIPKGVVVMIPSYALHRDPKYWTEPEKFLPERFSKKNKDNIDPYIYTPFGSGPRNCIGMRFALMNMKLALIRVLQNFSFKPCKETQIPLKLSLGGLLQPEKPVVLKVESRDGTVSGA
# UniProt P34981, sequence (P34981 whole entry, looked up): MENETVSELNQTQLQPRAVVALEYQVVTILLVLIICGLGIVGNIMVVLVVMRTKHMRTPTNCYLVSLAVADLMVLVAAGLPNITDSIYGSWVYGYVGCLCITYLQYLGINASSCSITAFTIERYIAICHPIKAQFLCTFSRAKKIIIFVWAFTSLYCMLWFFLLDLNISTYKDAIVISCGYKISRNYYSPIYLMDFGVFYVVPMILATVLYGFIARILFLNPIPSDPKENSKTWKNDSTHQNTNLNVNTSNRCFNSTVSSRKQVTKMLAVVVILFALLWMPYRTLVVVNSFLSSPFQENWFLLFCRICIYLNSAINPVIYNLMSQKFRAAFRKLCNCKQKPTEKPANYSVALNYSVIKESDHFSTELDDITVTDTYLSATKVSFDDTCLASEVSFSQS
smiles,measurement,setting,value
c1ccc(CNc2ncnc3nc[nH]c23)cc1,"activity, negative = inhibition",[1]; [14],inconclusive: 0.592%
O[C@@H](c1cc(C(F)(F)F)nc2c(C(F)(F)F)cccc12)[C@H]1CCCCN1,Potency,[2],"inconclusive: 9.52 µM [activator, partial curve]"
same,Potency,[1]; [14],inconclusive: 9.52 µM
same,Potency,[3],active: 26.6 µM
same,Potency,[4],active: 26.6 µM
same,Potency,[5],"inconclusive: 33.5 µM [activator, single point]"
same,Potency,[6],"inconclusive: 33.5 µM [cytotoxic, single point]"
same,Potency,[7],"inconclusive: 2.51 µM [activator, full curve, poor fit]"
C=C[C@@]1(C)CC(=O)[C@]2(O)[C@@]3(C)[C@@H](O)CCC(C)(C)[C@@H]3[C@H](O)[C@H](OC(C)=O)[C@@]2(C)O1,"activity, negative = inhibition",[1]; at 35.3 µM (top of the series),inconclusive: -3.31%
same,"activity, negative = inhibition",[1]; at 76.8 µM (top of the series),inconclusive: -3.75%
same,Potency,[4],"active: 68.6 µM and inconclusive: 29.8 µM [cytotoxic, partial curve]"
same,Potency,[8],active: 5.01 µM
same,Potency,[9],active: 63.3 µM
same,Potency,[10],"inconclusive: 3.89 µM [inhibitor, full curve, poor fit]"
same,Potency,[11],"inconclusive: 35.6 µM [inhibitor, partial curve] and inconclusive: 38.9 µM [inhibitor, partial curve]"
Nc1c2ccccc2nc2ccccc12,Potency,[1]; [14],inconclusive: 13.6 µM [fluorescent]
same,"activity, negative = inhibition",[1]; [14],inconclusive: -1.02% [at 35.3 µM]
same,Potency,[3],"inconclusive: 53.8 µM and inconclusive: 944 nM [cytotoxic, full curve]"
same,Potency,[5],active: 12 µM and inconclusive: 29.8 µM [activator]
same,Potency,[6],"inconclusive: 47.9 µM [rising, partial curve]"
same,Potency,[9],active: 700 nM and active: 11 µM
same,Potency,[11],inactive
CC/C(=C(/CC)c1ccc(O)cc1)c1ccc(O)cc1,"activity, negative = inhibition",[1]; at 35.3 µM (top of the series),inconclusive: 0.344%
same,"activity, negative = inhibition",[1]; at 76.8 µM (top of the series),inconclusive: 0.736% and inconclusive: 8.72%
same,Potency,[3],"inconclusive: 68 µM [cytotoxic, single point] and inconclusive: 68.6 µM [cytotoxic, single point]"
same,Potency,[6],"inconclusive: 68 µM [cytotoxic, single point] and inconclusive: 68.6 µM [cytotoxic, single point]"
C#C[C@]1(O)CC[C@H]2[C@@H]3CCc4cc(O)ccc4[C@H]3CC[C@@]21C,"activity, negative = inhibition",[1]; at 35.3 µM (top of the series),inconclusive: 0.633%
same,"activity, negative = inhibition",[1]; at 76.8 µM (top of the series),inconclusive: -3.25% and inconclusive: 13.5%
same,Potency,[3],"inconclusive: 44.7 µM [cytotoxic, partial curve, poor fit] and inconclusive: 68.6 µM [cytotoxic, single point]"
same,Potency,[4],"active: 54.1 µM and active: 54.5 µM and inconclusive: 23.7 µM [cytotoxic, partial curve]"
same,Potency,[11],"inconclusive: 56 µM [inhibitor, partial curve] and inconclusive: 63.3 µM [inhibitor, partial curve] and inconclusive: 30.9 µM [inhibitor, partial curve, poor fit]"
same,Potency,[12],"inactive and inconclusive: 35.6 µM [inhibitor, partial curve] and active: 17.4 µM"
O=CC=C(c1ccccc1)c1ccccc1,"activity, negative = inhibition",[1]; [14],inconclusive: -15%
same,Potency,[3],"inconclusive: 77.6 µM [cytotoxic, partial curve, poor fit]"
same,Potency,[5],"inconclusive: 69.1 µM [activator, partial curve, poor fit]"
same,Potency,[9],"inconclusive: 40.3 µM [inhibitor, full curve]"
same,Potency,[11],active: 20.2 µM
same,Potency,[12],active: 20.2 µM
CCc1nn(C2CCCCC2)c2cc(C3(C#N)CCC(C(=O)O)CC3)ccc12 (stereo unspecified),"activity, negative = inhibition",[1]; [14],inconclusive: 0.365%
same,Potency,[3],active: 48.6 µM
same,Potency,[6],active: 15.4 µM
same,Potency,[9],inactive
same,Potency,[10],"inconclusive: 89.4 µM [inhibitor, single point]"
C=CC(=O)OCCOCCOC(=O)C=C,"activity, negative = inhibition",[1]; [14],inconclusive: 56%
same,Potency,[3],active: 54.7 µM
same,Potency,[4],active: 15.4 µM
same,Potency,[5],"inconclusive: 12.2 µM [activator, single point]"
same,Potency,[10],"inconclusive: 89.8 µM [inhibitor, single point]"
same,Potency,[12],"inconclusive: 45 µM [inhibitor, partial curve]"
Cc1cc(=O)oc2cc(O)cc(O)c12,Potency,[1]; [14],"inconclusive: 49.2 µM [rising, partial curve]"
same,Potency,[3],inactive
same,Potency,[4],"inconclusive: 43.4 µM [rising, partial curve]"
same,Potency,[6],"inconclusive: 54.6 µM [rising, partial curve]"
same,Potency,[10],"inconclusive: 80 µM [inhibitor, single point]"
same,Potency,[11],"inconclusive: 35.7 µM [inhibitor, partial curve, poor fit]"
same,Potency,[13],active: 20.1 µM
